# Assay results from PubChem BioAssay AID488969 (Vanderbilt High Throughput Screening Facility, 2010).
# The full ranking holds about 110,000 compounds; the median of “z-score” is about -0.1, and the highest 2% start at about 2. The list shows a part of the results. Active and inactive are the calls of the source.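 Rule for the calls: active = z-score in the third read window above 3 or below -3; inactive = the rest.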
# Molecular target: Metabotropic glutamate receptor 8 (Rattus norvegicus) (UniProt P70579)
# Sequence of UniProt P70579 (P70579 whole entry, looked up): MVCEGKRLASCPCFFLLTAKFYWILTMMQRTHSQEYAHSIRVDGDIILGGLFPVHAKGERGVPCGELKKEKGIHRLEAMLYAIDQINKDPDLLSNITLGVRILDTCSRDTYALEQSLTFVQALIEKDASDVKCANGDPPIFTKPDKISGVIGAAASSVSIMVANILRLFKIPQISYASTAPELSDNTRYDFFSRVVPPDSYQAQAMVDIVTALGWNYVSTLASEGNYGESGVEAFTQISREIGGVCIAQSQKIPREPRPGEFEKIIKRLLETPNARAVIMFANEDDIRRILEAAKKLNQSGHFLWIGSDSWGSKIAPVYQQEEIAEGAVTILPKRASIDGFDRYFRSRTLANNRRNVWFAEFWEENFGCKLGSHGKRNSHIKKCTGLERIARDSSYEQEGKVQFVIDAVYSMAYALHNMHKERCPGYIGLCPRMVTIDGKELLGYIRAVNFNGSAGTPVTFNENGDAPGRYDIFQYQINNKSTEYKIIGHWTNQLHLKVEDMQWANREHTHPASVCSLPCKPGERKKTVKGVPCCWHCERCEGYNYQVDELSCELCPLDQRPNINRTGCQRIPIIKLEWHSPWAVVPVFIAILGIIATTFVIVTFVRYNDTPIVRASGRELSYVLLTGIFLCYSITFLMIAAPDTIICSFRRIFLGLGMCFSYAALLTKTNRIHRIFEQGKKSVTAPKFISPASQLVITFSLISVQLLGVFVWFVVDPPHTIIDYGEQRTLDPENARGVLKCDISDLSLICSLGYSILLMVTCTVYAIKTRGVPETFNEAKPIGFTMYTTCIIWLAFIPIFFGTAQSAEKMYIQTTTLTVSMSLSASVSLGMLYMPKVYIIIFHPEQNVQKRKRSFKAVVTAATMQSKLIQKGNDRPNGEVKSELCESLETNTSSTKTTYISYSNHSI
# Experiment: mGluR8 Gi/Go-coupled signaling modulation – cell-based, rat, thallium flux, HTS, primary screen (AID 488969)
# Settings: HEK293 rat mGluR8, GIRK (G protein-gated inwardly rectifying potassium channel) thallium flux, FluoZin2; at 10 µM; stronger effect = higher value; submaximal glutamate (EC20) added with thallium
row,SMILES,z-score
1,COc1cccc(-c2cc(C(F)(F)F)nc(N3CCC(C)CC3)n2)c1,-0.433
2,S=c1nc(-c2ccccc2)oc2c1CCCC2,-0.0866
3,COc1ccc(NS(=O)(=O)c2cccc(N3CC(O)=C(c4ccccc4)C3=N)c2)cc1,-0.322
4,COc1nc(N)c(S(=O)(=O)c2ccc(C)cc2)cc1C#N,-0.338
5,Cc1nc(NC(=O)C2CC2)sc1C,-0.419
6,CCC(C)(C)NC(=O)C(c1cccnc1)N(CCOC)C(=O)Cn1nnc2ccccc21 (stereo not given),0.248
7,COc1ccc(C2NC(=O)c3ccccc3N2)cc1OC (stereo not given),0.548
8,NS(=O)(=O)c1ccc(CCNC(=O)C2Cc3ccccc3CN2C(=O)c2ccco2)cc1 (stereo not given),0.12
9,Cc1ccc(NC(=S)NC2CC3CCC(C2)N3Cc2ccco2)c(C)c1 (stereo not given),0.174
10,Cc1nc2c(C(=O)NCc3ccccc3Cl)c[nH]n2c(=O)c1Cl,-0.412
11,CC(C)C(CCNC(=O)CN1C(=O)c2ccccc2C1=O)c1ccco1 (stereo not given),1.46
12,O=C(O)COCCN1CCN(C(c2ccccc2)c2ccc(Cl)cc2)CC1 (stereo not given),0.16
13,Cc1cc(Nc2cc(C(=O)O)ccc2C)n2ncnc2n1,0.0398
14,COC(=O)N1N=C(c2ccc(Br)cc2)CC1(O)C(F)(F)F (stereo not given),-0.372
15,Cc1nnc(SCC(=O)Nc2cccc(S(=O)(=O)N(C)c3ccccc3)c2)s1,-0.536
16,Cc1ccc(NC(=O)c2cc3nc(C)cc(C)n3n2)cc1,-0.429
17,CCCCCCCC(=O)N/N=C(\C)c1cccnc1,-1.01
18,Cc1cccnc1NC(=O)c1ccc2nc(N)sc2c1,-0.303
19,CCOc1ccccc1C(=O)Nc1ccccc1-c1ccccc1,0.0945
20,O=C1CC(C2CCCO2)C(=O)N1c1ccccc1 (stereo not given),0.253
21,CSCCC(NC(=O)c1ccco1)C(=O)O (stereo not given),0.528
22,O=c1[nH]c(-c2ccc(Cl)cc2)nc2c1cnn2-c1ccccc1,-0.29

row,SMILES,z-score
1,COc1ccc(CONS(=O)(=O)c2ccc(NC(C)=O)cc2)cc1Cl,-0.00509
2,N#CC(C#N)=CC1=C2OC(c3ccccc3)=CC(c3ccccc3)=C2CCC1,-0.236
3,CCc1ccccc1NC(=O)COC(=O)C1CC(=O)N(c2ccc(F)cc2)C1 (stereo not given),-0.678
4,COc1ccc(CC(=O)Nc2nnc(C)s2)cc1,-0.0206
5,CC(C)c1nnc(NC(=O)CSc2ccccc2)s1,0.0199
6,CCc1cc(-c2n[nH]c(=S)n2N)n(C)n1,0.018
7,COc1cc(/C=C(/NC(=O)c2ccccc2)C(=O)Nc2ccccc2)c([N+](=O)[O-])cc1OC,-0.0524
8,Cc1ccc(-n2c(=O)c3c4c(sc3n3c(C)nnc23)COC(C(C)C)C4)cc1 (stereo not given),-2.03
9,COc1ccc(OC)c(NC(=O)CSc2nc3ccccc3c(=O)n2CCNC(C)=O)c1,0.234
10,COc1ccc(-n2nnc3c(=O)n(C/C=C/c4ccccc4)cnc32)cc1,0.232
11,CCSc1nc2ccccc2n1S(=O)(=O)c1ccccc1,0.00952
12,O=C(Cc1ccc(Cl)cc1)Nc1ccc(N2CCCC2)cc1,0.209
13,Cc1ccccc1OCCC(=O)NCCc1ccc(S(N)(=O)=O)cc1,-0.077
14,Cn1c(=O)c2cc(S(=O)(=O)NCCC(=O)Nc3ccc(Cl)cc3)ccc2n(C)c1=O,0.726
15,CNC(=O)CCc1[nH]c2ccccc2c1Sc1ccccc1,-0.158
16,COc1ccc(C(=O)NC2CCSC2=O)cc1 (stereo not given),-0.412
17,Cc1ccc(S(=O)(=O)N2CCN(C(C(=O)Nc3ccc(F)cc3)c3ccccc3)CC2)cc1 (stereo not given),-2.21
18,CC(=O)c1cnc2c(-c3ccccc3)cnn2c1C,0.732
19,CCc1nc(SCC(=O)N2CCCc3ccccc32)c2oc3ccccc3c2n1,0.329
20,O=C(NCC(=O)N1CCCCC1)c1ccc(Cl)cc1Cl,-0.0121
21,COc1ccccc1NC(=O)CN(c1ccc([N+](=O)[O-])cc1)S(=O)(=O)c1ccccc1,-0.194
22,CCn1c(=O)cc(OCC(=O)NC2CCCCC2)c2ccccc21,-0.111

row,SMILES,z-score
1,CCOC(=O)c1nn(-c2ccccc2C)c2nc(CC(C)C)c(C#N)c(=O)n12,1.04
2,O=C(CSc1nccc(=O)[nH]1)Nc1ccc(S(=O)(=O)N2CCOCC2)cc1,0.000588
3,c1ccc(CNC2=NCCCC2)cc1,-0.319
4,CCOC(=O)C(CCCCCOc1ccc([N+](=O)[O-])cc1)C(=O)OCC,-0.105
5,CC(C)(C)c1ccc(C2(C)NC(=O)N(CC(=O)Nc3ccc4c(c3)OCO4)C2=O)cc1 (stereo not given),0.00336
6,Cc1ccc(C(=O)c2nc3c(n2O)CCCC3)cc1,-0.0809
7,CCNc1nc(NCC)n2c(SCc3ccc(F)cc3)nnc2n1,-1.11
8,COc1ccc(NS(=O)(=O)c2cc(N/C(=N\S(=O)(=O)c3ccccc3)c3ccc(F)cc3)ccc2Cl)cc1,0.166
9,CCCCC(c1nnnn1C1CCCC1)N1CCN(C2CCCC2)CC1 (stereo not given),0.472
10,COc1ccc2sc(NC(C)=O)nc2c1,-1.08
11,COc1ccccc1-c1ccc(Nc2cccc(C(C)=O)c2)nn1,-0.138
12,CC(C)(C)NS(=O)(=O)c1ccc(NS(C)(=O)=O)cc1,-0.0947
13,CC(C)C(NS(=O)(=O)c1cccc2nsnc12)C(=O)NCCC1=CCCCC1 (stereo not given),1.55
14,Cn1nc(-c2ccc(N3CCOCC3)c(NC(=O)COc3ccccc3)c2)c2ccccc2c1=O,active: -3.93
15,COc1ccc(N2C(=O)CSC23CCCCC3)cc1,0.448
16,CCS(=O)(=O)N1CCC(C(=O)NCCc2ccccc2)CC1,-0.0762
17,c1ccc(Cn2nnnc2C(c2ccccn2)N2CCOCC2)cc1 (stereo not given),0.358
18,C=C(C)CSc1nc2ncccc2[nH]1,0.0757
19,COc1ccc(CCN(Cc2cccs2)S(=O)(=O)c2ccc(S(=O)(=O)N(C)C3CCCCC3)cc2)cc1OC,-0.219
20,O=C(Nc1cccc2ccccc12)N1CCN(Cc2ccc3c(c2)OCO3)CC1,-0.297
21,CC(C)C(NS(=O)(=O)c1ccc2c3c(cccc13)C(=O)N2)C(=O)O (stereo not given),0.192
22,O=[N+]([O-])c1cccc(/C=N/Nc2nccnc2Cl)c1,-0.061

row,SMILES,z-score
1,Clc1ccccc1CSc1nnc(-c2cccnc2)n1Cc1ccco1,-0.171
2,Cc1cc(N2CC(C(=O)O)CC2=O)ccc1Br (stereo not given),-0.172
3,CC(C)(C)C(=O)CSc1nc2ncc(Br)cc2[nH]1,-0.301
4,Fc1ccccc1NC(=S)N1CCN(C/C=C/c2ccccc2)CC1,-0.629
5,O=C(NCC1CCCO1)C1CC(c2ccccc2Cl)=NO1 (stereo not given),-0.0231
6,CCCC1(CCC)NC(=O)NC1=O,0.0587
7,COc1cc(C(=O)Nc2ccc3c(c2)Cc2ccccc2-3)cc(OC)c1OC,-0.0975
8,O=C(NCC(c1cccnc1)N1CCN(c2ccccc2F)CC1)OCc1ccccc1 (stereo not given),-0.468
9,CC(C(=O)Nc1sc2c(c1C#N)CCCCC2)N1C(=O)c2ccccc2C1=O (stereo not given),0.126
10,Cc1ccc(-c2nc(CSCC(=O)N3CCN(C(=O)c4ccco4)CC3)c(C)o2)cc1,-0.691
11,Cc1ccc(OCC(=O)Nc2cccc(O)c2)cc1C,0.18
12,c1ccc2[nH]c(SCc3cn4cccnc4n3)nc2c1,-0.0437
13,CCN(CC)S(=O)(=O)c1ccc(C(=O)NCc2ccc3c(c2)cc(C)n3C)cc1,-0.388
14,O=C(Cc1ccc(S(=O)(=O)N2CCOCC2)s1)NCCC(c1ccccc1)c1ccccc1,-0.555
15,COc1ccc(NC(=O)C2CCCN(S(=O)(=O)c3cccs3)C2)cc1OC (stereo not given),-0.257
16,CCCC(C(=O)NCc1ccco1)N(C(=O)CNS(=O)(=O)c1ccccc1)C1CCCC1 (stereo not given),-1.28
17,COc1ccc(NC(=O)c2ccco2)c(NC(=O)Cc2cccs2)c1,0.162
18,COc1ccc(N2C(=O)CCC(C(=O)NCc3cccnc3)C2c2ccc(OC)c(OC)c2)cc1 (stereo not given),-0.0846
19,CCOC(=O)C1=C(C)NC(C)=C(C(=O)OCC)C1c1cccs1,-0.253
20,CC12CCC(C(=O)O)(c3nc(C#N)c(C#N)nc31)C2(C)C (stereo not given),0.701
21,O=C(COC(=O)c1cc(S(=O)(=O)N2CCOCC2)ccc1O)NCCc1ccccc1,-0.0466
22,CCC(c1nnnn1CCOC)N1CCN(Cc2ccccc2)CC1 (stereo not given),-0.338

row,SMILES,z-score
1,CCn1c(NCc2ccc3c(c2)OCO3)nc2ccccc21,-0.0327
2,O=c1c(-c2ccco2)[n+]([O-])c2ccccc2n1OCc1ccccn1,-0.153
3,CC1CCN(C(C)C(=O)Nc2ccccc2-c2ccccc2)CC1 (stereo not given),-0.229
4,c1ccc2c(-n3cnnn3)cccc2c1,-0.00649
5,COc1ccc(CCNC(=O)c2ccc(CNS(=O)(=O)c3ccc(C(C)(C)C)cc3)cc2)cc1OC,-0.178
6,Cc1cccc2cc(/C=C3\N=C(c4ccccc4)OC3=O)c(N3CCOCC3)nc12,active: -4.01
7,CN(Cc1ccccc1)S(=O)(=O)c1ccc2c(c1)n(C)c(=O)n2C,-0.0711
8,O=C(COc1ccc(Br)cc1)N1CCN(c2ccc([N+](=O)[O-])c(N3CCCCC3)c2)CC1,-0.631
9,CCOc1ccc(-n2c(C)nc3cc(C(=O)NCc4ccc5c(c4)OCO5)ccc32)cc1,-1.2
10,CCC(C)n1c(SCC(=O)NCc2ccco2)nnc1-c1cccc(S(=O)(=O)N2CCOCC2)c1 (stereo not given),-0.0916
11,O=C1N/C(=C/c2ccc(N3CCOCC3)o2)C(=O)N1c1ccccc1,-0.755
12,Cc1cc(C)c(S(C)(=O)=O)c(Oc2ccc(F)cc2)n1,-0.494
13,Cc1cc2occ(CC(=O)Nc3nnc(C4CC4)s3)c2cc1C,-0.147
14,COc1ccc(CNC(=O)c2cc3c(s2)CS(=O)C3)cc1 (stereo not given),-0.674
15,CCCCCCc1cc2cc(C(=O)Nc3ccccc3)c(=O)oc2cc1O,-0.142
16,Cc1nc(N2CCN(Cc3ccccc3)CC2)[nH]c(=O)c1C,-0.342
17,Cc1noc2ncnc(Oc3ccc4ccccc4c3)c12,-0.35
18,O=C1Nc2ccc(F)cc2C12Nc1ccccc1-c1nnc(SCc3ccccc3)nc1O2 (stereo not given),-0.338
19,COc1ccc(NC(=O)CCCn2c(=S)[nH]c3ccccc3c2=O)cc1,-0.514
20,O=C1NN(c2ccccc2)C(=O)/C1=C/c1ccc(Sc2cccc3ccccc23)o1,-0.0479
21,CC1CN(Cc2nc3c(c(=O)n(C)c(=O)n3C)n2Cc2cccc(Cl)c2)CC(C)O1 (stereo not given),0.889
22,O=C(CSCSCC(=O)Nc1ccc2c(c1)OCO2)Nc1ccc2c(c1)OCO2,-0.542
